Experimental data published in PubChem BioAssay AID588342 (National Center for Advancing Translational Sciences (NCATS), 2011).
Values joined by “and” are separate entries in the source; they are usually repeats but may differ in a detail not shown here. Equal values may be shown once. About 25,000 (6.9%) of roughly 360,000 compounds were called active. Inconclusive means that the source gave no clear call. Such entries were picked first, then a sample of the others. Calls come from the whole dose curve; as a rule, active = well fitted inhibition curve with a large enough effect; inconclusive = small, poorly fitted or top-dose-only effect; inactive = flat fitted curve, though single readings scatter. A potency beside an inconclusive call is a rough fit, not a confirmed value.

What follows are molecules tested against Luciferin 4-monooxygenase (Photinus pyralis) (UniProt P08659) (assay: qHTS profiling assay for firefly luciferase inhibitor/activator using purifed enzyme and Km concentrations of substrates (counterscreen for miR-21 project)). Conditions: purified FLuc, luminescence inhibition; series mostly up to 57.5 µM.
How it was run: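 Biochemical qHTS of compounds, final roughly 60 µM downward over six points, against 10 nM purified firefly luciferase using Km concentrations of substrates (10 uM D-luciferin, 10 uM ATP) in Tris acetate pH 7.5 buffer; luminescence output.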
Note: nearly all actives have a fitted effect of over 55% in size.
Potency is the fitted concentration of half-maximal effect; tags give direction and shape of the fitted curve.

UniProt P08659, sequence (P08659 whole entry, looked up): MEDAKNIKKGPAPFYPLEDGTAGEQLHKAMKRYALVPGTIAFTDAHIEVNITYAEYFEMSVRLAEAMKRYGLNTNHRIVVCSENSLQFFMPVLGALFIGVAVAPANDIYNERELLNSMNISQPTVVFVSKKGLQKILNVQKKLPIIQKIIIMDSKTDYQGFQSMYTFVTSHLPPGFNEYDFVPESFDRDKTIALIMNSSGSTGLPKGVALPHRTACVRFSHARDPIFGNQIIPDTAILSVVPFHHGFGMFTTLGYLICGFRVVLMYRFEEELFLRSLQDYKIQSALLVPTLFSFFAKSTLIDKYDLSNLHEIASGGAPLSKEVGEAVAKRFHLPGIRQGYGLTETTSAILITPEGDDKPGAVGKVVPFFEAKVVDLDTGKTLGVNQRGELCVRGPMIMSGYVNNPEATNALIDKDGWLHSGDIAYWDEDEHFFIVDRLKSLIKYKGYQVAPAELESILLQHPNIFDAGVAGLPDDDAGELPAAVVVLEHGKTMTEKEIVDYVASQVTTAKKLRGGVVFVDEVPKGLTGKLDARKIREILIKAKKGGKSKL

SMILES	Potency
COc1ccc(NC(=O)c2ccccc2NS(=O)(=O)c2ccc(CNC(C)=O)cc2)c(OC)c1	inconclusive: 21.3 µM [inhibitor, single point]
CCCCOc1ccc(C(=O)NCCc2cccs2)cc1	active: 7.57 µM
Cc1cccc(NC(=O)Nc2cc(C)on2)c1	inconclusive: 21.3 µM [inhibitor, single point]
CCOC(=O)c1cnc(SC)nc1N	inactive
COc1cccc(CNc2ccc3c(c2)ncn3C)c1OC	inconclusive: 30.1 µM [inhibitor, partial curve, poor fit] and inconclusive: 16.9 µM [inhibitor, single point]
CCC(=O)N1CCc2cc(S(=O)(=O)NCCC(=O)Nc3cccc(C)c3C)ccc21	inactive
Cc1cc(C(=O)CSc2nc3ccccc3c(=O)n2C)c(C)n1CC1CCCO1 (stereo unspecified)	inconclusive: 37.9 µM [inhibitor, single point]
Cc1nc2cc3nc(C(F)(F)F)[nH]c3cc2[nH]1	inconclusive: 21.3 µM [inhibitor, partial curve, poor fit]
CC1=CN2C(=N)/C(=C/c3ccco3)C(=O)N=C2S1	active: 1.51 µM
CCCNC(=O)COC(=O)c1ccccc1OCc1ccc(Cl)cc1	inconclusive: 26.9 µM [inhibitor, partial curve, poor fit]
COc1ccc(-c2[nH]ncc2/C=N\NC(=O)c2ccc(C(C)(C)C)cc2)cc1OC	active: 1.35 µM
Cc1ccc(C(=O)Nc2ccc([N+](=O)[O-])cn2)o1	inconclusive: 19 µM [inhibitor, partial curve, poor fit]
CN(C(=O)c1ccc2c(c1)CCO2)C(C)(C)C	inconclusive: 23.9 µM [inhibitor, single point]
CCc1ccc(S(=O)(=O)c2nnn3c2nc(Nc2cccc(C)c2C)c2sccc23)cc1	inactive
COc1ccc(C(=O)Nc2cc(C(=O)NCCc3ccccc3)ccc2Cl)cc1	inconclusive: 23.9 µM [inhibitor, single point]
Cc1nc(NC(=O)c2ccc(Cl)cc2)sc1-c1csc(Nc2cccc(F)c2)n1	active: 10.7 µM
COc1cccc(-c2nn(-c3ccccc3)cc2/C=C\C(=O)c2cccs2)c1	active: 7.57 µM
CS(=O)(=O)c1ccc2nc(NC(=O)Oc3ccccc3)sc2c1	inconclusive: 8.49 µM [inhibitor, partial curve, poor fit]
CC(=O)Nc1ccc(S(=O)(=O)Nc2cccc(C(=O)NC(C)(C)C)c2)cc1	inactive
COc1ccc(C(=O)O/N=C(\N)c2ccc(OC)c(OC)c2)c(OC)c1	inconclusive: 23.9 µM [inhibitor, single point]
O=C(CCCC(=O)N1CCN(c2ccccc2F)CC1)c1ccccc1	active: 26.9 µM
CSc1ccccc1NC(=O)CCS(=O)(=O)c1nc(-c2cccs2)cc(C(F)(F)F)n1	inconclusive: 37.9 µM [inhibitor, partial curve, poor fit]
Cc1ccc(NC(=O)CSc2nnc(-c3cc4occc4n3C)n2-c2ccccc2C)cc1F	inactive
COc1ccc(S(=O)(=O)N2CCOCC2)cc1NC(=O)CSc1nnc(C2CC2)n1N	inactive

SMILES	Potency
CCC(C)c1ccc(O)c(NC(=O)c2cncc(Br)c2)c1 (stereo unspecified)	inconclusive: 42.6 µM [inhibitor, partial curve, poor fit]
O=C(NCc1ccco1)C(=O)NCC(c1ccco1)N1CCOCC1 (stereo unspecified)	inactive
COCCNc1nc2sc3c(c2c(=O)n1Cc1ccco1)CCCCC3	inconclusive: 2.69 µM [inhibitor, full curve]
CCc1ccc(/C=C2\Oc3c(ccc(O)c3CN3CCN(CCO)CC3)C2=O)cc1	inconclusive: 12 µM [inhibitor, partial curve]
O=C(Nc1ccccn1)C1COc2ccccc2O1 (stereo unspecified)	inconclusive: 21.3 µM [inhibitor, single point]
O=C(NNC(=O)c1ccc2ccccc2c1O)c1ccccc1Cl	inconclusive: 21.3 µM [inhibitor, single point]
Cc1ccc(C(=O)Nc2cc3c(cc2Cl)OCCCO3)cc1	active: 7.57 µM
O=C(O)c1ccc(Cn2nnc3sc4c(c3c2=O)CCCC4)cc1	active: 13.5 µM
CN(CC(=O)Nc1ccc(F)cc1)CC(=O)N1CCCCC1	inactive
Cc1cccc(NC(=O)c2sc3ncn(CC(=O)N4CCN(c5ccccn5)CC4)c(=O)c3c2C)c1	inconclusive: 21.3 µM [inhibitor, partial curve, poor fit]
COc1ccccc1NC1=C(NC(C)=O)C(=O)c2ccccc2C1=O	inconclusive: 37.9 µM [inhibitor, single point]
Cc1nnsc1C(=O)Oc1ccccc1Cl	inactive
COc1ccc(NC(=O)CCNS(=O)(=O)c2cc(Br)cnc2N)c(OC)c1	inactive
O=C(CC1SC(N2CCCCC2)=NC1=O)Nc1ccc(C(=O)O)cc1 (stereo unspecified)	inconclusive: 23.9 µM [inhibitor, single point]
Cc1nnc2c(N3CCN(c4ccccc4F)CC3)nc3ccccc3n12	inconclusive: 10.7 µM [inhibitor, partial curve]
CC(=O)Cn1nnc2sc3c(c2c1=O)CCC(C(C)(C)C)C3 (stereo unspecified)	active: 21.3 µM
CCc1ccc(OCC(=O)NC(=S)Nc2ccc(C(=O)O)cc2)cc1	inconclusive: 23.9 µM [inhibitor, single point]
O=C(CSc1ccc2ccccc2n1)NCc1ccc2c(c1)OCO2	inconclusive: 37.9 µM [inhibitor, partial curve, poor fit]
Cc1cc(-n2c(SCC(=O)NCc3ccccc3)nc3ccsc3c2=O)ccc1Cl	inactive
CSc1nc(SC)c2c3c(oc2n1)COC(C)(C)C3	inconclusive: 21.3 µM [inhibitor, single point]
COc1cc(S(=O)(=O)N2CCOCC2)ccc1NC(=O)CSc1n[nH]c(=O)[nH]c1=O	inconclusive: 37.9 µM [inhibitor, partial curve, poor fit]
O=C(COC(=O)c1ccccn1)NCc1cccs1	inconclusive: 5.36 µM [inhibitor, partial curve, poor fit]
CCC(=O)Nc1ccc(-c2nnc(SCc3ccc(C(=O)Nc4nccs4)cc3)n2CC)cc1	active: 10.7 µM
Cc1cccc2cc3c(N)c(C(=O)Nc4ccc(N5CCOCC5)cc4)sc3nc12	inconclusive: 9.53 µM [inhibitor, partial curve]

SMILES	Potency
CSc1nc2ccc(NC(=O)c3cc4ccccc4o3)cc2s1	active: 1.07 µM
CCOC(=O)c1c(C)[nH]c(C(=O)OCC(=O)c2ccc(OC)cc2OC)c1C	inactive
CCN(CC)c1ccc(/C=C2\CCC(/C=C(\C#N)C(=O)Nc3ccccc3F)=C2N2CCOCC2)cc1	inconclusive: 8.49 µM [inhibitor, partial curve]
Cc1ccc(CNC(=O)Cc2ccc(NC3=NC4CS(=O)(=O)CC4S3)cc2)cc1 (stereo unspecified)	inconclusive: 23.9 µM [inhibitor, partial curve, poor fit]
CC(=Nc1ccc(C)cc1)c1sc2ccccc2c1O	active: 0.426 µM
Clc1ccc(Cn2ncc3c(N4CCCC4)ncnc32)cc1	inactive
COc1ccc(-c2cc(-c3ccc(N)cc3)nc(N)c2C#N)cc1OC	inconclusive: 21.3 µM [inhibitor, single point]
CCn1nc(NS(=O)(=O)c2ccccc2[N+](=O)[O-])c2cc3ccc(C)cc3nc21	inconclusive: 26.9 µM [inhibitor, single point]
COC(=O)CSc1nc2ccccc2nc1SCC(=O)OC	inconclusive: 26.9 µM [inhibitor, partial curve, poor fit]
COc1ccc(C(=O)NCc2nnc(SCC(=O)Nc3cc(Cl)ccc3OC)o2)cc1	inconclusive: 21.3 µM [inhibitor, single point]
Cc1ccc(NC(=O)c2cnccn2)cc1	inconclusive: 12 µM [inhibitor, partial curve]
COCCNC(=O)/C(C#N)=C/c1ccc(OC(=O)c2cccs2)c(OC)c1	inconclusive: 37.9 µM [inhibitor, partial curve, poor fit]
CN(C)c1ccc(C(=O)/C=C/c2ccc(Br)cc2)cc1	active: 1.69 µM
CC(C)(C)C(=O)NC(=S)NNC(=O)c1sc2ccccc2c1Cl	inconclusive: 21.3 µM [inhibitor, partial curve]
CCN(CC)S(=O)(=O)c1cccc(-c2nnc(SC(C)C(=O)NCCC3=CCCCC3)o2)c1 (stereo unspecified)	inactive
CC(Cc1ccccc1)NC(=O)/C=C/c1ccc([N+](=O)[O-])cc1 (stereo unspecified)	inactive
CC(C)(C)c1ccc(C(=O)NCCC(=O)NC2=NCCS2)cc1	inconclusive: 30.1 µM [inhibitor, partial curve, poor fit]
O=C(Nc1nc2ccc(Cl)cc2s1)[C@@H]1CCCN1C(=O)c1cccs1	inconclusive: 26.9 µM [inhibitor, single point]
CCc1ccc(Nc2nnc(SCC(=O)N(C)CC(=O)Nc3ccccc3CC)s2)cc1	active: 6.75 µM
O=C(NCC1CCCO1)c1cc(-c2ccccc2F)no1 (stereo unspecified)	active: 15.1 µM
Cc1cc(CN(C)C(=O)CCc2nnc(Cc3cccc(C(F)(F)F)c3)o2)on1	inconclusive: 30.1 µM [inhibitor, single point]
Cn1c(COc2ccc(Cl)cc2)nc2ccccc2c1=O	inconclusive: 26.9 µM [inhibitor, single point]
O=C(CSc1nc(-c2cccc(Cl)c2)nc2cc(=O)[nH]n12)Nc1ccccc1	inconclusive: 9.53 µM [inhibitor, partial curve, poor fit]
